Test results reported in the supplement of paper PMC10369915.
The other results are listed elsewhere or left out. Rule as the data show it: active = 3.2 or more and inactive = the rest. Only a few entries rise above the background.

Tests used:
Experiment in all cases: enrichment score (SH2-bound / input frequency) (ratio); bacterial display of known human phosphotyrosine sites (pTyr-Var adds point mutants) read by sequencing; higher = stronger binding; tyrosines were phosphorylated by kinases first
Conditions in all cases: peptide library: pTyr-Var
SHP2 C-SH2 domain E139D = target: SHP2 C-SH2 domain E139D
[1] = target: SHP2 C-SH2 domain wild-type
SHP2 N-SH2 domain L43F = target: SHP2 N-SH2 domain L43F
SHP2 N-SH2 domain T42A = target: SHP2 N-SH2 domain T42A
SHP2 N-SH2 domain T52S = target: SHP2 N-SH2 domain T52S
[2] = target: SHP2 N-SH2 domain wild-type

Measured: enrichment score
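Also: displayed peptides selected on beads carrying the immobilized SH2 domain, with library peptides lacking any tyrosine serving as negative controls.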

PRARTYCYKQE [KLHDC9_Y175_S171R]
inactive: SHP2 C-SH2 domain E139D 0.448 | [1] 0.635 | SHP2 N-SH2 domain L43F 0.561 | SHP2 N-SH2 domain T42A 0.635 | SHP2 N-SH2 domain T52S 0.483 | [2] 0.448

PRARTYCFKQE [KLHDC9_Y175_S171R_YF]
inactive: SHP2 C-SH2 domain E139D 1.02 | [1] 1.13 | SHP2 N-SH2 domain L43F 1.23 | SHP2 N-SH2 domain T42A 0.794 | SHP2 N-SH2 domain T52S 0.9 | [2] 0.955

STGWSYAGVAV [KLHL3_Y577_R575W]
inactive: SHP2 C-SH2 domain E139D 0.715 | [1] 0.691 | SHP2 N-SH2 domain L43F 0.865 | SHP2 N-SH2 domain T42A 0.76 | SHP2 N-SH2 domain T52S 0.726 | [2] 0.946

GRQWNYVASMS [KLHL4_Y552]
inactive: SHP2 C-SH2 domain E139D 1.2 | [1] 1.13 | SHP2 N-SH2 domain L43F 1.06 | SHP2 N-SH2 domain T42A 1.27 | SHP2 N-SH2 domain T52S 1.15 | [2] 1.25

TKVVHYRKWIK [KLK2_Y249]
inactive: SHP2 C-SH2 domain E139D 0.902 | [1] 0.739 | SHP2 N-SH2 domain L43F 0.654 | SHP2 N-SH2 domain T42A 0.611 | SHP2 N-SH2 domain T52S 0.647 | [2] 0.973

VLRQVYVDFEG [KMT2B_Y1707_R1705Q]
inactive: SHP2 C-SH2 domain E139D 1.65 | [1] 1.49 | SHP2 N-SH2 domain L43F 1.54 | SHP2 N-SH2 domain T42A 1.64 | SHP2 N-SH2 domain T52S 1.8 | [2] 1.99

SYTDPYAQPSL [KMT2D_Y2378_P2382S]
inactive: SHP2 C-SH2 domain E139D 0.736 | [1] 0.659 | SHP2 N-SH2 domain L43F 0.728 | SHP2 N-SH2 domain T42A 0.649 | SHP2 N-SH2 domain T52S 0.718 | [2] 0.747

KILTHYKQPHT [KMT2D_Y5349_R5351Q]
inactive: SHP2 C-SH2 domain E139D 1.32 | [1] 1.14 | SHP2 N-SH2 domain L43F 1.33 | SHP2 N-SH2 domain T42A 1.07 | SHP2 N-SH2 domain T52S 1.3 | [2] 1.18

NYAKMYCNPDA [KNL1_Y489]
inactive: SHP2 C-SH2 domain E139D 0.951 | [1] 0.954 | SHP2 N-SH2 domain L43F 0.816 | SHP2 N-SH2 domain T42A 0.537 | SHP2 N-SH2 domain T52S 0.722 | [2] 0.736

NYSKMYCNPDA [KNL1_Y489_A486S]
inactive: SHP2 C-SH2 domain E139D 0.483 | [1] 0.59 | SHP2 N-SH2 domain L43F 0.688 | SHP2 N-SH2 domain T42A 0.642 | SHP2 N-SH2 domain T52S 0.438 | [2] 0.64

VVKTVYSLQPP [KNSTRN_Y87]
inactive: SHP2 C-SH2 domain E139D 1.25 | [1] 1.01 | SHP2 N-SH2 domain L43F 0.887 | SHP2 N-SH2 domain T42A 0.697 | SHP2 N-SH2 domain T52S 0.745 | [2] 1.12

ENQEIYRKAFD [KPNA1_Y493_Q494R]
inactive: SHP2 C-SH2 domain E139D 0.537 | [1] 0.559 | SHP2 N-SH2 domain L43F 0.508 | SHP2 N-SH2 domain T42A 0.561 | SHP2 N-SH2 domain T52S 0.57 | [2] 0.816

HFVDEYDPTIE [KRAS_Y32]
inactive: SHP2 C-SH2 domain E139D 0.555 | [1] 0.585 | SHP2 N-SH2 domain L43F 0.59 | SHP2 N-SH2 domain T42A 0.656 | SHP2 N-SH2 domain T52S 0.949 | [2] 0.783

GGMTEYKLVVV [KRAS_Y4]
inactive: SHP2 C-SH2 domain E139D 1.26 | [1] 1.44 | SHP2 N-SH2 domain L43F 1.03 | SHP2 N-SH2 domain T42A 1.95 | SHP2 N-SH2 domain T52S 1.16 | [2] 0.956

GGMTEYNLVVV [KRAS_Y4_K5N]
inactive: SHP2 C-SH2 domain E139D 0.796 | [1] 0.924 | SHP2 N-SH2 domain L43F 0.749 | SHP2 N-SH2 domain T42A 0.793 | SHP2 N-SH2 domain T52S 0.649 | [2] 1.15

TIEDSYRKQVV [KRAS_Y40]
inactive: SHP2 C-SH2 domain E139D 0.512 | [1] 0.673 | SHP2 N-SH2 domain L43F 0.648 | SHP2 N-SH2 domain T42A 0.501 | SHP2 N-SH2 domain T52S 0.754 | [2] 0.706

ARQEEYSAMRD [KRAS_Y64_G60R]
inactive: SHP2 C-SH2 domain E139D 0.65 | [1] 0.656 | SHP2 N-SH2 domain L43F 0.567 | SHP2 N-SH2 domain T42A 0.388 | SHP2 N-SH2 domain T52S 0.598 | [2] 0.371

ASQEEYSAMRD [KRAS_Y64_G60S]
inactive: SHP2 C-SH2 domain E139D 0.529 | [1] 0.781 | SHP2 N-SH2 domain L43F 0.5 | SHP2 N-SH2 domain T42A 0.398 | SHP2 N-SH2 domain T52S 0.533 | [2] 0.579

SGGSSYGSGGC [KRT1_Y532_G537C]
inactive: SHP2 C-SH2 domain E139D 0.613 | [1] 0.843 | SHP2 N-SH2 domain L43F 0.595 | SHP2 N-SH2 domain T42A 0.515 | SHP2 N-SH2 domain T52S 0.662 | [2] 0.788

DCLASYLDKVR [KRT10_Y160_R156C]
inactive: SHP2 C-SH2 domain E139D 1.07 | [1] 1.04 | SHP2 N-SH2 domain L43F 1.03 | SHP2 N-SH2 domain T42A 0.891 | SHP2 N-SH2 domain T52S 0.954 | [2] 1.05

DPLASYLDKVR [KRT10_Y160_R156P]
inactive: SHP2 C-SH2 domain E139D 0.81 | [1] 0.791 | SHP2 N-SH2 domain L43F 0.718 | SHP2 N-SH2 domain T42A 0.658 | SHP2 N-SH2 domain T52S 0.843 | [2] 0.73

DRLASSLDKVR [KRT10_Y160_Y160S]
inactive: SHP2 C-SH2 domain E139D 0.88 | [1] 0.603 | SHP2 N-SH2 domain L43F 0.888 | SHP2 N-SH2 domain T42A 0.533 | SHP2 N-SH2 domain T52S 0.69 | [2] 0.917

DTLASYLDKVR [KRT12_Y139_R135T]
inactive: SHP2 C-SH2 domain E139D 1.32 | [1] 0.861 | SHP2 N-SH2 domain L43F 1.25 | SHP2 N-SH2 domain T42A 1.19 | SHP2 N-SH2 domain T52S 1.17 | [2] 1.2

LEIETYRRLLD [KRT12_Y429]
inactive: SHP2 C-SH2 domain E139D 0.978 | [1] 0.777 | SHP2 N-SH2 domain L43F 0.823 | SHP2 N-SH2 domain T42A 0.873 | SHP2 N-SH2 domain T52S 0.614 | [2] 0.842

LEVETYRRLLD [KRT12_Y429_I426V]
inactive: SHP2 C-SH2 domain E139D 0.736 | [1] 0.815 | SHP2 N-SH2 domain L43F 0.812 | SHP2 N-SH2 domain T42A 0.678 | SHP2 N-SH2 domain T52S 0.869 | [2] 0.848

LEIETDRRLLD [KRT12_Y429_Y429D]
inactive: SHP2 C-SH2 domain E139D 0.591 | [1] 0.692 | SHP2 N-SH2 domain L43F 0.546 | SHP2 N-SH2 domain T42A 0.497 | SHP2 N-SH2 domain T52S 0.899 | [2] 0.7

DRPASYLEKVR [KRT13_Y118_L115P]
inactive: SHP2 C-SH2 domain E139D 0.705 | [1] 0.709 | SHP2 N-SH2 domain L43F 0.67 | SHP2 N-SH2 domain T42A 0.779 | SHP2 N-SH2 domain T52S 0.817 | [2] 0.737

DRLASYLDKAR [KRT14_Y129_V133A]
inactive: SHP2 C-SH2 domain E139D 0.838 | [1] 0.957 | SHP2 N-SH2 domain L43F 1.13 | SHP2 N-SH2 domain T42A 0.88 | SHP2 N-SH2 domain T52S 0.79 | [2] 0.871

KEELAYLKKNH [KRT14_Y248]
inactive: SHP2 C-SH2 domain E139D 0.761 | [1] 0.656 | SHP2 N-SH2 domain L43F 0.563 | SHP2 N-SH2 domain T42A 0.886 | SHP2 N-SH2 domain T52S 0.764 | [2] 1

KEELDYLKKNH [KRT14_Y248_A247D]
inactive: SHP2 C-SH2 domain E139D 1.01 | [1] 1.18 | SHP2 N-SH2 domain L43F 0.83 | SHP2 N-SH2 domain T42A 0.929 | SHP2 N-SH2 domain T52S 0.932 | [2] 1.09

QEIATYRRLLE [KRT14_Y415]
inactive: SHP2 C-SH2 domain E139D 0.538 | [1] 0.483 | SHP2 N-SH2 domain L43F 0.542 | SHP2 N-SH2 domain T42A 0.464 | SHP2 N-SH2 domain T52S 0.475 | [2] 0.557

QEIATYRRQLE [KRT14_Y415_L418Q]
inactive: SHP2 C-SH2 domain E139D 0.82 | [1] 0.8 | SHP2 N-SH2 domain L43F 0.762 | SHP2 N-SH2 domain T42A 0.614 | SHP2 N-SH2 domain T52S 0.495 | [2] 0.595

QEIATHRRLLE [KRT14_Y415_Y415H]
inactive: SHP2 C-SH2 domain E139D 0.526 | [1] 0.429 | SHP2 N-SH2 domain L43F 0.593 | SHP2 N-SH2 domain T42A 0.513 | SHP2 N-SH2 domain T52S 0.446 | [2] 0.532

QEIATYRRLRE [KRT17_Y384_L388R]
inactive: SHP2 C-SH2 domain E139D 0.215 | [1] 0.173 | SHP2 N-SH2 domain L43F 0.218 | SHP2 N-SH2 domain T42A 0.21 | SHP2 N-SH2 domain T52S 0.215 | [2] 0.322

RDWSHYFKIIE [KRT18_Y129]
inactive: SHP2 C-SH2 domain E139D 1.07 | [1] 1.25 | SHP2 N-SH2 domain L43F 0.741 | SHP2 N-SH2 domain T42A 0.862 | SHP2 N-SH2 domain T52S 0.865 | [2] 1.16

SSSGGYGGGFG [KRT19_Y61_A60G_YF]
inactive: SHP2 C-SH2 domain E139D 0.689 | [1] 0.477 | SHP2 N-SH2 domain L43F 0.714 | SHP2 N-SH2 domain T42A 0.73 | SHP2 N-SH2 domain T52S 0.728 | [2] 0.585

GYGGGYGGVLT [KRT19_Y65_A60G]
inactive: SHP2 C-SH2 domain E139D 1.02 | [1] 0.874 | SHP2 N-SH2 domain L43F 0.911 | SHP2 N-SH2 domain T42A 0.819 | SHP2 N-SH2 domain T52S 0.801 | [2] 0.94
